# From the supplement of paper PMC8728848
# The list shows a part of the results.
# Legend:
# Assay in all cases: glycan array binding signal (z-score within array); higher = stronger binding
# Details in all cases: glycan notation: IUPAC condensed, linker removed
# [1] = target: GalNAc(b1-4)GlcNAc(b1-2)Man
# In short: (§1)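 Glycan array data came from 3228 arrays in the Consortium for Functional Glycomics database, and only arrays with an available protein sequence were kept. Glycan names were put into IUPAC-condensed notation, and columns mapping to the same glycan were averaged. The binding signal is a within-array Z-score, averaged across arrays of one protein sequence run at different concentrations or buffers and across linkers. A negative Z-score can be read as non-binding.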
# [2] = target: GalNAc(b1-4)GlcNAc(b1-2)Man(a1-3)[GalNAc(b1-4)GlcNAc(b1-2)Man(a1-6)]Man(b1-4)GlcNAc(b1-4)GlcNAc
# In short: as §1
# [3] = target: GalNAc(b1-4)GlcNAc(b1-3)GalNAc(b1-4)GlcNAc
# In short: as §1
# GalNAc(b1-4)GlcNAc6S = target: GalNAc(b1-4)GlcNAc6S
# In short: as §1
# GalNAc(b1-6)GalNAc = target: GalNAc(b1-6)GalNAc
# In short: as §1
# GalNAc3S(b1-4)GlcNAc = target: GalNAc3S(b1-4)GlcNAc
# In short: as §1
# GalNAc3S(b1-4)GlcNAc3S = target: GalNAc3S(b1-4)GlcNAc3S
# In short: as §1
# [4] = target: GalNAc3S(b1-4)[Fuc(a1-3)]GlcNAc
# In short: as §1
# GalNAc4S6S(b1-4)GlcNAc = target: GalNAc4S6S(b1-4)GlcNAc
# In short: as §1
# GalNAc6S(b1-4)GlcNAc = target: GalNAc6S(b1-4)GlcNAc
# In short: as §1
# Glc(a1-4)Glc = target: Glc(a1-4)Glc
# In short: as §1
# [5] = target: Glc(a1-4)Glc(a1-4)Glc(a1-4)Glc
# In short: as §1
# Glc(a1-6)Glc(a1-6)Glc = target: Glc(a1-6)Glc(a1-6)Glc
# In short: as §1
# [6] = target: Glc(a1-6)Glc(a1-6)Glc(a1-6)Glc
# In short: as §1
# Glc(b1-4)Glc = target: Glc(b1-4)Glc
# In short: as §1
# Glc(b1-6)Glc = target: Glc(b1-6)Glc
# In short: as §1
# GlcA(b1-3)Gal = target: GlcA(b1-3)Gal
# In short: as §1
# GlcA(b1-3)GlcNAc = target: GlcA(b1-3)GlcNAc
# In short: as §1
# GlcA(b1-6)Gal = target: GlcA(b1-6)Gal
# In short: as §1
# [7] = target: GlcA3S(b1-3)Gal(b1-4)GlcNAc(b1-2)Man
# In short: as §1
# [8] = target: GlcA3S(b1-3)Gal(b1-4)GlcNAc(b1-3)Gal(b1-4)Glc
# In short: as §1
# [9] = target: GlcNAc(a1-3)Gal(b1-4)GlcNAc
# In short: as §1
# [10] = target: GlcNAc(a1-4)Gal(b1-3)GlcNAc
# In short: as §1
# [11] = target: GlcNAc(a1-4)Gal(b1-4)GalNAc
# In short: as §1
# [12] = target: GlcNAc(a1-4)Gal(b1-4)GlcNAc
# In short: as §1
# [13] = target: GlcNAc(a1-4)Gal(b1-4)GlcNAc(b1-3)Gal(b1-4)Glc
# In short: as §1
# [14] = target: GlcNAc(a1-4)Gal(b1-4)GlcNAc(b1-3)Gal(b1-4)GlcNAc
# In short: as §1
# [15] = target: GlcNAc(a1-4)Gal(b1-4)GlcNAc(b1-3)Gal(b1-4)GlcNAc(b1-3)Gal(b1-4)GlcNAc
# In short: as §1
# [16] = target: GlcNAc(a1-4)Gal(b1-4)GlcNAc(b1-3)Gal(b1-4)[Fuc(a1-3)]GlcNAc(b1-3)Gal(b1-4)[Fuc(a1-3)]GlcNAc
# In short: as §1
# [17] = target: GlcNAc(a1-6)Gal(b1-4)GlcNAc
# In short: as §1
# [18] = target: GlcNAc(b1-2)Gal(b1-3)GalNAc
# In short: as §1
# [19] = target: GlcNAc(b1-2)Man(a1-3)[GlcNAc(b1-2)Man(a1-6)]Man(b1-4)GlcNAc(b1-4)GlcNAc
# In short: as §1
# [20] = target: GlcNAc(b1-2)Man(a1-3)[GlcNAc(b1-2)Man(a1-6)]Man(b1-4)GlcNAc(b1-4)[Fuc(a1-6)]GlcNAc
# In short: as §1
# [21] = target: GlcNAc(b1-2)Man(a1-3)[GlcNAc(b1-4)][GlcNAc(b1-2)Man(a1-6)]Man(b1-4)GlcNAc(b1-4)GlcNAc
# In short: as §1
# [22] = target: GlcNAc(b1-2)Man(a1-3)[GlcNAc(b1-4)][GlcNAc(b1-2)Man(a1-6)]Man(b1-4)GlcNAc(b1-4)[Fuc(a1-6)]GlcNAc
# In short: as §1
# [23] = target: GlcNAc(b1-2)[GlcNAc(b1-4)]Man(a1-3)[GlcNAc(b1-2)Man(a1-6)]Man(b1-4)GlcNAc(b1-4)GlcNAc
# In short: as §1
# [24] = target: GlcNAc(b1-2)[GlcNAc(b1-4)]Man(a1-3)[GlcNAc(b1-4)][GlcNAc(b1-2)Man(a1-6)]Man(b1-4)GlcNAc(b1-4)GlcNAc
# In short: as §1
# [25] = target: GlcNAc(b1-2)[GlcNAc(b1-4)]Man(a1-3)[GlcNAc(b1-4)][GlcNAc(b1-2)[GlcNAc(b1-6)]Man(a1-6)]Man(b1-4)GlcNAc(b1-4)GlcNAc
# In short: as §1
# [26] = target: GlcNAc(b1-2)[GlcNAc(b1-4)]Man(a1-3)[GlcNAc(b1-4)][GlcNAc(b1-2)[GlcNAc(b1-6)]Man(a1-6)]Man(b1-4)GlcNAc(b1-4)[Fuc(a1-6)]GlcNAc
# In short: as §1
# [27] = target: GlcNAc(b1-2)[GlcNAc(b1-6)]Man(a1-6)[GlcNAc(b1-2)Man(a1-3)]Man(b1-4)GlcNAc(b1-4)GlcNAc
# In short: as §1
# [28] = target: GlcNAc(b1-2)[GlcNAc(b1-6)]Man(a1-6)[GlcNAc(b1-2)Man(a1-3)]Man(b1-4)GlcNAc(b1-4)[Fuc(a1-6)]GlcNAc
# In short: as §1
# [29] = target: GlcNAc(b1-2)[GlcNAc(b1-6)]Man(a1-6)[GlcNAc(b1-4)][GlcNAc(b1-2)Man(a1-3)]Man(b1-4)GlcNAc(b1-4)GlcNAc
# In short: as §1
# GlcNAc(b1-3)Fuc = target: GlcNAc(b1-3)Fuc
# In short: as §1
# GlcNAc(b1-3)Gal = target: GlcNAc(b1-3)Gal
# In short: as §1
# [30] = target: GlcNAc(b1-3)Gal(b1-3)GalNAc
# In short: as §1
binder,measurement,setting,value
Pwp3 (Candida glabrata) (protein) MGSSHHHHHHSSGLVPRGSHMASKNPVDFTTVCQFPDNFSKKPGFLATTARLGLWITGNSYKELLNYPGTFTLTTQQASTTTPNIQLRGTDLFTTIYGLTVYPLYLLVELQGYFVPTQSGMYTFSLTGSDDAAIIFIGNPSTFPCDAFKTWPQATANDITVTDSINPSRTLYMVKGVAYPLRIAYYNGLGNGVLNAAFTDPSGTKRTDWNGYIWQYDQCSTCTYK,glycan array binding signal (z-score),[1],-0.911
same,glycan array binding signal (z-score),[2],-0.242
same,glycan array binding signal (z-score),[3],0.01
same,glycan array binding signal (z-score),GalNAc(b1-4)GlcNAc6S,0.026
same,glycan array binding signal (z-score),GalNAc(b1-6)GalNAc,-0.636
same,glycan array binding signal (z-score),GalNAc3S(b1-4)GlcNAc,-0.53
same,glycan array binding signal (z-score),GalNAc3S(b1-4)GlcNAc3S,-0.114
same,glycan array binding signal (z-score),[4],-1.68
same,glycan array binding signal (z-score),GalNAc4S6S(b1-4)GlcNAc,2
same,glycan array binding signal (z-score),GalNAc6S(b1-4)GlcNAc,-0.571
same,glycan array binding signal (z-score),Glc(a1-4)Glc,-0.313
same,glycan array binding signal (z-score),[5],-0.189
same,glycan array binding signal (z-score),Glc(a1-6)Glc(a1-6)Glc,-0.261
same,glycan array binding signal (z-score),[6],-0.566
same,glycan array binding signal (z-score),Glc(b1-4)Glc,-0.125
same,glycan array binding signal (z-score),Glc(b1-6)Glc,-0.774
same,glycan array binding signal (z-score),GlcA(b1-3)Gal,-1.27
same,glycan array binding signal (z-score),GlcA(b1-3)GlcNAc,0.04
same,glycan array binding signal (z-score),GlcA(b1-6)Gal,0.434
same,glycan array binding signal (z-score),[7],0.527
same,glycan array binding signal (z-score),[8],-0.545
same,glycan array binding signal (z-score),[9],-0.153
same,glycan array binding signal (z-score),[10],-0.45
same,glycan array binding signal (z-score),[11],0.899
same,glycan array binding signal (z-score),[12],-0.761
same,glycan array binding signal (z-score),[13],-0.39
same,glycan array binding signal (z-score),[14],-1.24
same,glycan array binding signal (z-score),[15],-0.069
same,glycan array binding signal (z-score),[16],-0.735
same,glycan array binding signal (z-score),[17],-0.688
same,glycan array binding signal (z-score),[18],-0.581
same,glycan array binding signal (z-score),[19],-0.52
same,glycan array binding signal (z-score),[20],-0.209
same,glycan array binding signal (z-score),[21],-0.14
same,glycan array binding signal (z-score),[22],-0.195
same,glycan array binding signal (z-score),[23],-0.427
same,glycan array binding signal (z-score),[24],-0.375
same,glycan array binding signal (z-score),[25],-0.173
same,glycan array binding signal (z-score),[26],0.512
same,glycan array binding signal (z-score),[27],-0.48
same,glycan array binding signal (z-score),[28],-0.285
same,glycan array binding signal (z-score),[29],-0.216
same,glycan array binding signal (z-score),GlcNAc(b1-3)Fuc,0.535
same,glycan array binding signal (z-score),GlcNAc(b1-3)Gal,-0.332
same,glycan array binding signal (z-score),[30],-0.399
